# About 200 (0.062%) of roughly 320,000 compounds were called active. The shares of active, inactive and inconclusive entries below differ from those in the screen. Calls come from the whole dose curve; as a rule, active = well fitted activation curve with a large enough effect; inconclusive = small, poorly fitted or top-dose-only effect; inactive = no such curve, though single readings can be large or run the other way. Potencies of inconclusive entries are left out as doubtful fits.
# Assay: qHTS assay for re-activators of p53 using a Luc reporter; note: nearly all actives have a fitted effect of over 45% in size
# Conditions: H1299 p53-A138V BP100-luciferase reporter, luminescence, 24 h; series mostly up to 92.2 µM
# Procedure, shortened: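 p53-null H1299 cells stably carrying temperature-sensitive p53-A138V and a BP100-luciferase reporter were pinned with compounds (4-point, 1:5 series) and held 24 hrs at 37 deg C. Luminescence was read 10 min after detection reagent.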
# Potency is the fitted concentration of half-maximal effect; tags give direction and shape of the fitted curve.
row,SMILES,Potency
1,CN(CCNC(=O)C1CCC(=O)N(Cc2ccc(Cl)cc2)C1)CCc1ccccc1 (centres undefined),"inconclusive [activator, partial curve, poor fit]"
2,COc1cccc(CCN2CCC(CNS(=O)(=O)c3cc(-c4cc(C)no4)ccc3C)CC2)c1,"inconclusive [activator, partial curve, poor fit]"
3,COc1ccc([C@H]2CC(=O)C=C(c3cc4ccccc4s3)C2)cc1,"inconclusive [activator, partial curve, poor fit]"
4,COc1ccc(C(=O)COC(=O)CCC(=O)Nc2ccc(C(C)=O)cc2)cc1,"inconclusive [activator, partial curve, poor fit]"
5,COc1ccc(N=Cc2nc(-c3ccco3)oc2O)cc1,"inconclusive [activator, partial curve, poor fit]"
6,Cc1ccc2c(c1)c1c(n2C)C(C(N)=O)CCC1 (centres undefined),"inconclusive [activator, single point]"
7,O=C(c1ccc(F)cc1)C(CN1CCOCC1)c1ccccc1 (centres undefined),inactive
8,COc1ccc(OC)c(S(=O)(=O)Nc2cc3c(cc2N2CCCC2)n(C)c(=O)c(=O)n3C)c1,inactive
9,Cc1ccc(NC(=O)C(=O)NCc2ccc(/C=N/NC(=O)c3c(C)nc4ccccn34)o2)cc1,"inconclusive [activator, partial curve, poor fit]"
10,O=C(NCC(c1cccs1)N1CCOCC1)c1ccccc1NS(=O)(=O)c1cccc([N+](=O)[O-])c1 (centres undefined),inactive
11,CN(C)c1nc2ccc(OCCN3CCCCC3)cc2s1,"inconclusive [activator, single point]"
12,CCOc1ccc2nc(NC(=O)CSc3cn[nH]n3)sc2c1,"inconclusive [activator, full curve, poor fit]"
13,O=C(CSc1ccccc1)N1CCc2ccccc21,"inconclusive [activator, partial curve, poor fit]"
14,CCOc1ccc2nc(NC(=O)CN3C(=O)C4CCCCC4C3=O)sc2c1 (centres undefined),"inconclusive [activator, partial curve, poor fit]"
15,c1ccc2c(COn3nnc4ccccc43)cccc2c1,"inconclusive [activator, partial curve, poor fit]"
16,CCCCNC(=S)NC(=O)c1ccccc1Br,inactive
17,Cc1cccc(-c2nnc(SCC(=O)N3CCOCC3)o2)c1,"inconclusive [activator, full curve, poor fit]"
18,O=C(c1ccc(Cn2c(=O)[nH]c3ccsc3c2=O)cc1)N1CCN(c2ccccc2)CC1,inactive
19,CC(C)(C)C(=O)Nc1ccccc1C(=O)OCC(=O)c1ccc2c(c1)OCCO2,"inconclusive [activator, partial curve, poor fit]"
20,Clc1ccc(Cn2nnc(-c3ccccc3)n2)cc1,"inconclusive [activator, partial curve, poor fit]"
21,CC(C)(C)Cc1nc(-c2ccccn2)no1,"inconclusive [activator, partial curve]"
22,O=C(/C=C/c1ccco1)Nc1ccc(S(=O)(=O)N2CCOCC2)cc1,inactive
23,O=C(CSc1ncnc2ccccc12)N1CCCC1,"inconclusive [activator, full curve, poor fit]"

row,SMILES,Potency
1,O=C1ON=C(c2ccccc2)/C1=C/c1cccnc1,inactive
2,O=C(CSc1nc2scc(-c3ccccc3)c2c(=O)[nH]1)N1CCCCC1,"inconclusive [activator, single point]"
3,O=c1c(-c2ccc3c(c2)OCCO3)coc2c(CN3CCOCC3)c(O)ccc12,"inconclusive [activator, single point]"
4,O=C(N/N=C/c1ccccc1O)C1CC(=O)N(c2ccc(F)cc2)C1 (centres undefined),inactive
5,Cc1ccc(OCC(=O)c2cc(C)n(-c3cc(C)on3)c2C)c([N+](=O)[O-])n1,"inconclusive [activator, partial curve, poor fit]"
6,CCOC(=O)C(=CNc1ccc(S(N)(=O)=O)cc1)C(=O)OCC,"inconclusive [activator, single point]"
7,O=C(N/N=C1/CC2C=CCC12)c1ccc(Br)o1 (centres undefined),"inconclusive [activator, full curve, poor fit]"
8,Cc1ccccc1C(=O)/C=C1\NC(=O)CS1,"inconclusive [activator, single point]"
9,Cc1sc(NC(=O)c2cccs2)nc1-c1ccccc1,"inconclusive [activator, full curve, poor fit]"
10,CC1=NN(C(=O)Cc2ccc([N+](=O)[O-])cc2)C(O)(c2ccccc2)C1 (centres undefined),inactive
11,O=c1c2ccccc2nc2n1CC/C2=C\c1ccccc1[N+](=O)[O-],"inconclusive [activator, partial curve, poor fit]"
12,COc1ccc(S(=O)(=O)N2CCN(C(=O)c3c(C)nn(-c4ccccc4)c3C)CC2)cc1,inactive
13,CCOc1ccc(S(=O)(=O)Oc2ccc3ccccc3c2)cc1,"inconclusive [activator, full curve, poor fit]"
14,COCCCN1C(=O)c2ccc(C(=O)Nc3ccc(OC)cc3)cc2C1=O,inactive
15,O=C(CN1C(=O)NC(c2ccccc2)(c2ccccc2)C1=O)NCCc1ccc(F)cc1,inactive
16,C=CCn1c(COc2ccccc2)nnc1SC(C)C(=O)N/N=C/c1cc(Cl)ccc1O (centres undefined),"inconclusive [activator, partial curve, poor fit]"
17,Cc1ccc(N2C(=O)CSC2c2cccnc2)c(Cl)c1 (centres undefined),inactive
18,Oc1c(Br)cc(Br)cc1CNc1ccc(F)cc1,inactive
19,CCCCc1c(C)nc2c(OC)cccc2c1SCCC(=O)O,inactive
20,O=c1c2ccccc2nc(SCc2ccc([N+](=O)[O-])cc2)n1-c1ccc(Cl)cc1,"inconclusive [activator, full curve, poor fit]"
21,COC(=O)c1ccnc(SCC(=O)c2ccccc2)c1,"inconclusive [activator, partial curve, poor fit]"
22,CCCCC(=O)N1C/C=C\C(c2ccc(OC)cc2)N(Cc2ccc(F)cc2)C(=O)[C@H]1Cc1ccccc1 (some centres undefined),inactive
23,CC(C)Sc1nnc(NC(=O)C2CC2)s1,"inconclusive [activator, full curve, poor fit]"

row,SMILES,Potency
1,Cc1cc(C)cc(NC(=S)NC2CC3CCCC(C2)N3C2CC2)c1 (centres undefined),inactive
2,Cc1cc(Br)ccc1NC(=O)C1CCN(S(=O)(=O)c2cnc[nH]2)CC1,"inconclusive [activator, single point]"
3,CCCC(=O)Nc1nc2ccc(OCC)cc2s1,active: 3.16 µM
4,CC(C)(C)c1ccc(C(=O)CCC(=O)OCC(=O)NCCc2ccc(S(N)(=O)=O)cc2)cc1,inactive
5,O=C(Nc1ccccc1)c1ccccc1N=Cc1ccccc1O,"inconclusive [activator, partial curve]"
6,C[C@@H](NC(=O)c1[nH]cnc1C(=O)Nc1ccccc1)c1ccccc1,inactive
7,Cc1ccc(NC(=O)C2CCN(S(C)(=O)=O)CC2)c(C)c1,"inconclusive [activator, single point]"
8,O=C(Nc1ccccn1)c1ccc(NC(=O)c2ccco2)cc1,"inconclusive [activator, partial curve, poor fit]"
9,CN(C)C(=O)/C=C\c1cn(-c2ccccc2)nc1-c1ccc2c(c1)OCCO2,inactive
10,COc1cc(C)ccc1OCc1cc(C(=O)N(C)CCCN2CCOCC2)no1,"inconclusive [activator, partial curve, poor fit]"
11,Cc1ccsc1C(=O)OCC(=O)NCCC1=CCCCC1,"inconclusive [activator, full curve, poor fit]"
12,CCOC(=O)CCCCC(=O)c1[nH]c(=O)[nH]c1CSc1nc(C)cc(C)n1,inactive
13,Cc1ccc(S(=O)(=O)N2CCN(C(=O)Cn3c(=O)oc4ccccc43)CC2)c(C)c1,inactive
14,COc1ccc(NC(=O)CNC(=O)c2ccco2)cc1,"inconclusive [activator, single point]"
15,CC1CCCN(c2ccc(C(=O)NCC3CCCO3)cn2)C1 (centres undefined),"inconclusive [activator, partial curve, poor fit]"
16,COc1ccc(C2C(C#N)=C(N)Oc3c2sc2nc(C)cc(C)c32)cc1 (centres undefined),"inconclusive [activator, single point]"
17,CC(C)CN1C(=O)c2ccc(C(=O)Nc3ccncc3)cc2C1=O,inactive
18,Oc1[nH]c(N=C2N=c3ccccc3=N2)c2ccccc12,"inconclusive [activator, partial curve, poor fit]"
19,CCNC(=O)NC(=O)COc1ccccc1C#N,"inconclusive [activator, partial curve, poor fit]"
20,COc1ccc(/C(C)=N/Nc2nncc3ccccc23)cc1,"inconclusive [activator, full curve, poor fit]"
21,O=C(Nc1ccc(N2CCCCC2)c(Cl)c1)c1ncn[nH]1,"inconclusive [activator, single point]"
22,CC12CCC(C(=O)N(CSC(=S)N/N=C\c3ccccc3O)C1=O)C2(C)C (centres undefined),"inconclusive [activator, partial curve, poor fit]"
23,CC1CCC(NC(=O)c2ccc(NC(=O)CC3SC(N4CCCC4)=NC3=O)cc2)CC1 (centres undefined),"inconclusive [activator, full curve, poor fit]"
